Test results reported in publication PMC4336329 (PLoS ONE, 2015).
About 2,200 (0.71%) of roughly 310,000 compounds showed an effect of 50% or more. Effects have a minus sign here. This is one part of the list.

target: human ether-à-go-go-related gene (hERG) potassium channel (human, UniProt Q12809); test: primary screen, population patch clamp on CHO cells stably expressing hERG
Sequence (Q12809 whole entry, looked up): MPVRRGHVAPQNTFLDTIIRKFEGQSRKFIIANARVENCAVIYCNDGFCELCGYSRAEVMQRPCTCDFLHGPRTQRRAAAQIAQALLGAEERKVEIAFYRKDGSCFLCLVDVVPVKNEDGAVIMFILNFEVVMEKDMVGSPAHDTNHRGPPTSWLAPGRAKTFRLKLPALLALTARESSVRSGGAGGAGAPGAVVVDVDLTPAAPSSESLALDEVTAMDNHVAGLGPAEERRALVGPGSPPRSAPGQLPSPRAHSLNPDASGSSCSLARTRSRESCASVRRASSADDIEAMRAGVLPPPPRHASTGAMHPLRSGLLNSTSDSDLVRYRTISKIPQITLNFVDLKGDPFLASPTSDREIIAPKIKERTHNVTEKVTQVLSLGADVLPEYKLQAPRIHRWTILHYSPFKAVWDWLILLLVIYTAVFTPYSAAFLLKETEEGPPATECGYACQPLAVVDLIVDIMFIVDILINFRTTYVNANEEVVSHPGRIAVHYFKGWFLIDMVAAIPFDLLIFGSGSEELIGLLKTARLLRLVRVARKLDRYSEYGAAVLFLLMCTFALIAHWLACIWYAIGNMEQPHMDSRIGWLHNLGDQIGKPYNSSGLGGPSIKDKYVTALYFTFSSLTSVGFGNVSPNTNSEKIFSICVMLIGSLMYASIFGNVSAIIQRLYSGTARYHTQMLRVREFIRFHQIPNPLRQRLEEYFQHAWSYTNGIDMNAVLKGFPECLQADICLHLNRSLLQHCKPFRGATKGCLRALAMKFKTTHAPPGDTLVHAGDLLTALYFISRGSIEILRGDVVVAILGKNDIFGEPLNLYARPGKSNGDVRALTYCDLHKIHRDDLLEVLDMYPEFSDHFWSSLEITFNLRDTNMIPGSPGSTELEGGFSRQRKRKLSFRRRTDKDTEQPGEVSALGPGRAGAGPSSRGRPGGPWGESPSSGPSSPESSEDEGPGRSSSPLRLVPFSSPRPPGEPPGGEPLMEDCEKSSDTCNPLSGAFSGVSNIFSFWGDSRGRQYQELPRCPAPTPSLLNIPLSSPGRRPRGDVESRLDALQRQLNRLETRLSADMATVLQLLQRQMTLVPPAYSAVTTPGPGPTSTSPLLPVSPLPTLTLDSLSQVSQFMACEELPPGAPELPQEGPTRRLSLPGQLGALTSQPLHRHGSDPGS

Structure (SMILES)	hERG current change (%, negative = inhibition) at 1uM
CCOC(=O)Cc1csc2nc(-c3ccccc3)nn12	14.1%
Clc1ccc(/C(Cc2nc3ccccc3[nH]2)=N\Nc2ccccc2)cc1	10.5%
c1ccc(-c2cccc(-c3ccccn3)n2)nc1	2.37%
Cc1nnc(NC(=O)CSc2nnc(-c3ccoc3C)n2CC(C)C)s1	10.4%
CC(C)C1N(C(=O)N2CCOCC2)CCN1S(=O)(=O)c1ccccc1 (centres unmarked)	18.7%
O=C(c1cnn2c(C(F)(F)F)cc(-c3ccc4c(c3)OCO4)nc12)N1CCCCC1	8.69%
O=[N+]([O-])C(=C1NCCN1)C(Cl)=C(Cl)Cl	11.6%
CCNc1nc(OCCNC(C)=O)nc(N(C)C)n1	20.8%
CCCCOc1ccc(C(O)C(CN2CCOCC2)c2ccccc2)cc1.Cl (centres unmarked)	4.27%
O=C(NCC(c1ccco1)N1CCc2ccccc2C1)C(=O)Nc1ccccc1 (centres unmarked)	12.3%
COc1cc(OC)c(NC(=O)Cc2ccc(OC)c(S(=O)(=O)N3CCOCC3)c2)cc1Cl	5.73%
COC(=O)c1c([N+](=O)[O-])c(OC)c(OC)c(OC)c1[N+](=O)[O-]	0.055%
NS(=O)(=O)c1cccc(NC(=O)CN2CCC(Cc3ccccc3)CC2)c1	12.6%
O=C(c1ccc(CN2CCc3ccccc3C2)cc1)N1CCN(c2ccccc2)CC1	8.46%
COc1cc(/C=N\Nc2nncn2N)ccc1OC(C)=O.Cl	15.3%
CCCCNC(=O)c1ccc(NS(=O)(=O)c2ccc3[nH]c(=O)[nH]c3c2)cc1	4.85%
S=c1[nH]nc(-c2ccc3ccccc3n2)n1-c1ccc2ncccc2c1	15.4%
COCCN(C(=O)c1cccc(OC)c1)c1nnc(-c2ccncc2)s1	1.99%
C[C@]12C=CC(=O)C=C1CC[C@@H]1C2=CC[C@]2(C)[C@@H](C(=O)CN3CCN(c4cc(N5CCCC5)nc(N5CCCC5)n4)CC3)CC[C@@H]12.O=C(O)/C=C\C(=O)O	12.4%

Structure (SMILES)	hERG current change (%, negative = inhibition) at 1uM
CCCCCCO	21.9%
CCOC(=O)c1c(NC(=O)CSc2c[nH]c3ccccc23)sc2c1CCCC2	16.6%
CCN(CC)S(=O)(=O)c1ccc(N2CCOCC2)c(NC(=O)c2cc([N+](=O)[O-])ccc2Cl)c1	4.44%
O=S(=O)(NC1CCCC1)c1ccc(Br)s1	11.5%
S=c1[nH]nc(-c2ccccn2)n1/N=C/c1ccccc1	8.65%
Cc1cc(C(=O)CS(=O)(=O)c2ccc(Cl)cc2)cc(C)c1O	21.3%
Cc1ccc(CNC(=O)C(=O)NCC2OCCN2C(=O)c2ccc(Cl)cc2)cc1 (centres unmarked)	14.4%
CCc1nnc(NC(=O)NCN2C(=O)C3C4C=CC(C4)C3C2=O)s1 (centres unmarked)	8.25%
C[n+]1cccc(C(=O)N/N=C/c2ccc3c(c2)OCO3)c1.[I-]	14.6%
COc1ccc(S(=O)(=O)N2CCOCC2)cc1C(=O)NC1CCCCC1	4.36%
Nc1nc(COc2ccc(Cl)cc2)cs1	5.28%
C=CCNC(=O)c1ccccc1NC(=O)c1ccccc1SC	4.19%
CC(=O)Nc1ccc(S(=O)(=O)N(C)CC(=O)OC2CCCCC2=O)cc1 (centres unmarked)	4.14%
O=C(CSc1nc2ccccc2c(=O)[nH]1)N1CCN(c2ccccc2F)CC1	12.1%
Cc1noc(C(=O)Nc2cc(Cl)ccc2O)c1Cl	25.7%
CC1CCCN(S(=O)(=O)c2ccc(NC(=O)CN3CCCCC3)cc2)C1 (centres unmarked)	-24.9%
COc1ccccc1Oc1c(C)oc2c(CN3CCN(CCO)CC3)c(O)ccc2c1=O	15.1%
O=C(Cc1c(F)cccc1Cl)Nc1ccc(S(=O)(=O)Nc2nccs2)cc1	6.72%
Cc1ccc(NC(=O)c2nc[nH]c2C(=O)N(C)Cc2ccccc2)cc1	5.93%

Structure (SMILES)	hERG current change (%, negative = inhibition) at 1uM
CCOC(=O)/C(C#N)=C(C)/C=C1\Sc2ccccc2N1CC	4.77%
CCCn1nnnc1SCC(=O)Nc1nnc(CC)s1	14.3%
Cc1ccccc1N(C)S(=O)(=O)c1ccc2[nH]cc(C(=O)NCC3CCCO3)c(=O)c2c1 (centres unmarked)	6.03%
CC1Oc2ccccc2C=C1/C=N/NC(=O)[C@@H](C)NC(=O)OC(C)(C)C (some centres unmarked)	3.34%
Cc1nc2ccccn2c1-c1nnco1	2.15%
CCNC(=S)N1CCC(Cc2ccccc2)CC1	8.21%
COc1ccc(CCNC(=O)c2ccc3c(c2)NC(=O)C(CSCc2cc(C)ccc2C)N3)cc1OC (centres unmarked)	11%
CC(C)C(NC(=O)c1ccccc1NC(=O)c1ccccc1)C(=O)NNC(=O)c1ccncc1 (centres unmarked)	16.3%
Cc1cccc2c(CC(=O)O)noc12	0.409%
CN1CCc2c(sc3c2c(=O)n(-c2ccccc2)c2nncn32)C1	7.37%
O=C(CSc1n[nH]c(-c2cccs2)n1)NCc1ccc2c(c1)OCO2	-0.326%
O=C(N/N=C/c1cc(Br)c(O)c(Br)c1)C1CC1	7.8%
CCOc1ccccc1C(=O)NCC(=O)NCc1ccc(S(=O)(=O)N2CCOCC2)cc1	2.85%
CCC(C)(C)NC(=O)CN(Cc1ccc(F)cc1)C(=O)CCC(=O)Nc1ccccn1	1.36%
COc1ccc(NC(=O)/C=C/C(=O)O)c([N+](=O)[O-])c1	6.56%
O=C(Cc1ccccc1)NC1(O)C(=O)c2ccccc2C1=O	10.5%
c1ccc2c(c1)ncn2-c1ccc(-c2ccnc3ncnn23)cc1	-18.7%
Cc1ccc(S(=O)(=O)N(C)CC(=O)N2CCN(Cc3ccc4c(c3)OCO4)CC2)cc1	-40.2%
